Experimental data published in the supplement of paper PMC10126150.
Sequences with one replicate were seen in a single cluster, so their values are uncertain.

Test system: ATP
Test: switch fluorescence ratio, 500 uM ATP over buffer (Cy3 cluster intensity, sum of 5 cycles each) (fold (ratio)); higher = stronger signal-on switching upon ATP binding; sequences stand for … in TCGTCGGCAGCGTCAGATGTGTATAAGAGACAGTTTTTTTTTTTTTTTTTTTTTTTTT…TC
Details: aptamer strand: ATP DNA aptamer (quencher-CACCTGGGGGAGTATTGCGGAGGAAGG + anchor), 100 nM annealed; ATP concentration: 500 uM; one replicate
How it was run: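 Values give the fluorescence ratio for each switch-domain sequence, averaged from per-cluster ratios of summed target-cycle to summed buffer-cycle Cy3 intensity. The Cy3-labelled switching-strand clusters sat on a modified Illumina MiSeq flow-cell, were annealed to 100 nM quencher-labelled ATP aptamer, and were imaged in selection buffer, then after 15 min with 500 uM ATP at 22 °C. Five cycles ran with NaOH stripping and re-annealing between them, and clusters outside 100-1000 RFU were excluded.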
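Further: ATP exposure 15 min at 22 °C before imaging.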

Which switch fluorescence ratio does the source give for ATGAGGTA here?
The switch fluorescence ratio was 0.999.

How did the switch fluorescence ratio turn out when ATGAGTCCCG was run?
Its switch fluorescence ratio is 1.03.

ATGATAGTAG was tested. Which switch fluorescence ratio did it give?
Its switch fluorescence ratio is 1.

How did the switch fluorescence ratio turn out when ATGATCACGG was run?
Its switch fluorescence ratio is 1.04.

ATGATCGGCC was tested. Which switch fluorescence ratio did it give?
Its switch fluorescence ratio is 0.965.

With ATGATCGTTG as the sequence, how does the switch fluorescence ratio read?
Its switch fluorescence ratio is 1.02.

ATGATCTGGG was tested. Which switch fluorescence ratio did it give?
Its switch fluorescence ratio is 0.947.

ATGATCTTGT was tested. Which switch fluorescence ratio did it give?
Its switch fluorescence ratio is 0.965.

ATGATGATAA was tested. Which switch fluorescence ratio did it give?
Its switch fluorescence ratio is 0.961.

ATGATGCTGT was tested. Which switch fluorescence ratio did it give?
The switch fluorescence ratio was 0.995.

ATGATGGAGG was tested. Which switch fluorescence ratio did it give?
Its switch fluorescence ratio is 1.02.

For ATGATTCTTA, which switch fluorescence ratio is on record?
The switch fluorescence ratio was 1.03.

How did the switch fluorescence ratio turn out when ATGATTTCCC was run?
Its switch fluorescence ratio is 1.09.

With ATGCAAAGG as the sequence, how does the switch fluorescence ratio read?
The switch fluorescence ratio was 0.982.

Which switch fluorescence ratio does the source give for ATGCAACCCT here?
The switch fluorescence ratio was 1.01.

Which switch fluorescence ratio does the source give for ATGCAGCCGC here?
Its switch fluorescence ratio is 1.07.

For ATGCAGCTCG, which switch fluorescence ratio is on record?
Its switch fluorescence ratio is 1.02.

How did the switch fluorescence ratio turn out when ATGCAGGTCG was run?
The switch fluorescence ratio was 0.975.

Which switch fluorescence ratio does the source give for ATGCAGTCTT here?
The switch fluorescence ratio was 0.953.

For ATGCATGCAT, which switch fluorescence ratio is on record?
The switch fluorescence ratio was 0.989.

For ATGCATTGTG, which switch fluorescence ratio is on record?
The switch fluorescence ratio was 0.971.

For ATGCCCATCG, which switch fluorescence ratio is on record?
The switch fluorescence ratio was 0.997.

How did the switch fluorescence ratio turn out when ATGCCGAATT was run?
Its switch fluorescence ratio is 1.03.

Which switch fluorescence ratio does the source give for ATGCCGCGGG here?
The switch fluorescence ratio was 0.996.

How did the switch fluorescence ratio turn out when ATGCCTCCG was run?
The switch fluorescence ratio was 1.77.

How did the switch fluorescence ratio turn out when ATGCGAGTAG was run?
The switch fluorescence ratio was 1.

With ATGCGCTTAT as the sequence, how does the switch fluorescence ratio read?
Its switch fluorescence ratio is 1.

For ATGCGCTTTA, which switch fluorescence ratio is on record?
The switch fluorescence ratio was 1.04.

For ATGCGGCGCA, which switch fluorescence ratio is on record?
The switch fluorescence ratio was 1.02.

ATGCGGGTGT was tested. Which switch fluorescence ratio did it give?
The switch fluorescence ratio was 1.01.

For ATGCGGTAAT, which switch fluorescence ratio is on record?
Its switch fluorescence ratio is 0.973.

ATGCGGTTAA was tested. Which switch fluorescence ratio did it give?
The switch fluorescence ratio was 1.01.

ATGCGTATGA was tested. Which switch fluorescence ratio did it give?
The switch fluorescence ratio was 1.

With ATGCTAAGCG as the sequence, how does the switch fluorescence ratio read?
Its switch fluorescence ratio is 1.

Which switch fluorescence ratio does the source give for ATGCTACGAG here?
The switch fluorescence ratio was 1.03.

With ATGCTACTGT as the sequence, how does the switch fluorescence ratio read?
Its switch fluorescence ratio is 1.05.

With ATGCTCGGGT as the sequence, how does the switch fluorescence ratio read?
The switch fluorescence ratio was 1.02.

For ATGCTCTTAC, which switch fluorescence ratio is on record?
Its switch fluorescence ratio is 1.11.

With ATGCTGCGTT as the sequence, how does the switch fluorescence ratio read?
The switch fluorescence ratio was 1.01.

With ATGCTGTTTC as the sequence, how does the switch fluorescence ratio read?
The switch fluorescence ratio was 0.982.

With ATGCTTGGTG as the sequence, how does the switch fluorescence ratio read?
The switch fluorescence ratio was 1.04.

With ATGCTTGTTG as the sequence, how does the switch fluorescence ratio read?
Its switch fluorescence ratio is 1.

For ATGGACCGAT, which switch fluorescence ratio is on record?
The switch fluorescence ratio was 1.04.

ATGGACGAGT was tested. Which switch fluorescence ratio did it give?
Its switch fluorescence ratio is 0.972.

For ATGGACGGCC, which switch fluorescence ratio is on record?
Its switch fluorescence ratio is 0.992.

ATGGACTTGA was tested. Which switch fluorescence ratio did it give?
The switch fluorescence ratio was 1.02.

Which switch fluorescence ratio does the source give for ATGGAGCAAA here?
The switch fluorescence ratio was 3.17.

How did the switch fluorescence ratio turn out when ATGGAGCGTT was run?
Its switch fluorescence ratio is 1.02.

ATGGAGGTCC was tested. Which switch fluorescence ratio did it give?
Its switch fluorescence ratio is 1.01.

Which switch fluorescence ratio does the source give for ATGGAGTCTG here?
The switch fluorescence ratio was 0.991.

How did the switch fluorescence ratio turn out when ATGGAGTTT was run?
Its switch fluorescence ratio is 1.

Which switch fluorescence ratio does the source give for ATGGATGTG here?
The switch fluorescence ratio was 1.

ATGGATGTGA was tested. Which switch fluorescence ratio did it give?
Its switch fluorescence ratio is 1.03.

With ATGGCATGTT as the sequence, how does the switch fluorescence ratio read?
Its switch fluorescence ratio is 1.03.

ATGGCCAGAG was tested. Which switch fluorescence ratio did it give?
The switch fluorescence ratio was 0.945.

Which switch fluorescence ratio does the source give for ATGGCCGGAG here?
Its switch fluorescence ratio is 1.04.

With ATGGCGGAC as the sequence, how does the switch fluorescence ratio read?
The switch fluorescence ratio was 0.985.

ATGGCGGTTG was tested. Which switch fluorescence ratio did it give?
Its switch fluorescence ratio is 0.988.

Which switch fluorescence ratio does the source give for ATGGCTGT here?
The switch fluorescence ratio was 1.03.

ATGGCTTATA was tested. Which switch fluorescence ratio did it give?
The switch fluorescence ratio was 0.965.

With ATGGGAGCCG as the sequence, how does the switch fluorescence ratio read?
The switch fluorescence ratio was 0.987.

ATGGGAGTGG was tested. Which switch fluorescence ratio did it give?
Its switch fluorescence ratio is 1.02.

For ATGGGCTCTG, which switch fluorescence ratio is on record?
The switch fluorescence ratio was 1.05.

ATGGGGAAAA was tested. Which switch fluorescence ratio did it give?
The switch fluorescence ratio was 0.979.

How did the switch fluorescence ratio turn out when ATGGGGCTT was run?
The switch fluorescence ratio was 0.976.

With ATGGGGGTG as the sequence, how does the switch fluorescence ratio read?
Its switch fluorescence ratio is 1.1.

With ATGGGGTATA as the sequence, how does the switch fluorescence ratio read?
Its switch fluorescence ratio is 0.981.

Which switch fluorescence ratio does the source give for ATGGGGTTCC here?
The switch fluorescence ratio was 0.997.

Which switch fluorescence ratio does the source give for ATGGGTCCCG here?
Its switch fluorescence ratio is 0.999.

ATGGGTGAA was tested. Which switch fluorescence ratio did it give?
The switch fluorescence ratio was 0.988.

ATGGTACATG was tested. Which switch fluorescence ratio did it give?
The switch fluorescence ratio was 0.985.

For ATGGTCAATT, which switch fluorescence ratio is on record?
Its switch fluorescence ratio is 0.949.

How did the switch fluorescence ratio turn out when ATGGTCCAAG was run?
Its switch fluorescence ratio is 0.97.

ATGGTCCGC was tested. Which switch fluorescence ratio did it give?
Its switch fluorescence ratio is 1.2.

Which switch fluorescence ratio does the source give for ATGGTGATAC here?
Its switch fluorescence ratio is 1.36.

ATGGTGATGG was tested. Which switch fluorescence ratio did it give?
The switch fluorescence ratio was 1.02.

For ATGGTGTAAC, which switch fluorescence ratio is on record?
Its switch fluorescence ratio is 1.02.

With ATGGTTAAAA as the sequence, how does the switch fluorescence ratio read?
Its switch fluorescence ratio is 0.986.

How did the switch fluorescence ratio turn out when ATGGTTCGAT was run?
Its switch fluorescence ratio is 0.967.

Which switch fluorescence ratio does the source give for ATGGTTGCGG here?
The switch fluorescence ratio was 1.01.

ATGGTTTGCC was tested. Which switch fluorescence ratio did it give?
The switch fluorescence ratio was 0.986.

For ATGTAATAAA, which switch fluorescence ratio is on record?
The switch fluorescence ratio was 1.02.

With ATGTACACGG as the sequence, how does the switch fluorescence ratio read?
Its switch fluorescence ratio is 1.09.

How did the switch fluorescence ratio turn out when ATGTACAGGT was run?
The switch fluorescence ratio was 1.09.

ATGTACCATA was tested. Which switch fluorescence ratio did it give?
The switch fluorescence ratio was 1.03.

For ATGTACCGGA, which switch fluorescence ratio is on record?
The switch fluorescence ratio was 0.999.

With ATGTAGAATT as the sequence, how does the switch fluorescence ratio read?
Its switch fluorescence ratio is 1.03.

How did the switch fluorescence ratio turn out when ATGTAGTTTG was run?
The switch fluorescence ratio was 0.993.

With ATGTCCAGAA as the sequence, how does the switch fluorescence ratio read?
Its switch fluorescence ratio is 1.04.

For ATGTCGCCAT, which switch fluorescence ratio is on record?
The switch fluorescence ratio was 0.987.

Which switch fluorescence ratio does the source give for ATGTCTAATA here?
The switch fluorescence ratio was 0.998.

For ATGTCTAGTC, which switch fluorescence ratio is on record?
The switch fluorescence ratio was 0.979.

For ATGTCTATTG, which switch fluorescence ratio is on record?
The switch fluorescence ratio was 0.995.

Which switch fluorescence ratio does the source give for ATGTCTTCCT here?
The switch fluorescence ratio was 1.19.

Which switch fluorescence ratio does the source give for ATGTGACGGA here?
The switch fluorescence ratio was 0.988.

How did the switch fluorescence ratio turn out when ATGTGCATCG was run?
The switch fluorescence ratio was 0.973.

How did the switch fluorescence ratio turn out when ATGTGCATT was run?
Its switch fluorescence ratio is 1.03.

Which switch fluorescence ratio does the source give for ATGTGCTACG here?
The switch fluorescence ratio was 1.03.

Which switch fluorescence ratio does the source give for ATGTGCTAGT here?
Its switch fluorescence ratio is 1.

With ATGTGGAATT as the sequence, how does the switch fluorescence ratio read?
Its switch fluorescence ratio is 0.986.
